According to the RNAGym collection of RNA variant scans (doi:10.1073/pnas.2313332121):
Variants at the floor of the assay are shown more often than the library holds them.

B1: TPR 5TU (parent)
chain: GGAUCUUCUCGAUCUAACAAAAAAGACAAAUCUGCCACAAAGCUUGAGAGCAUCUUCGGAUGCAGAGGCGGCAGCCUUCGGUGGCGCGAUAGCGCCAACGUUCUCAACUAUGACACGCAAAACGCGUGCUCCGUUGAAUGGAGUUUAUCAUG

Variants of: B1
Test: polymerase ribozyme fitness, log enrichment relative to wild type (log ratio); higher = more active; in vitro selection for triplet polymerase activity
Method in brief: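 Each subunit of a heterodimeric triplet polymerase ribozyme was mutagenized into a library by PCR, transcribed, and subjected to one round of in vitro selection, run in triplicate. Libraries were annealed with a biotinylated primer, the partner subunit and triplets, incubated frozen at −7 °C, and extended constructs were gel-excised, captured on streptavidin beads and recovered by RT-PCR. Input and output libraries were sequenced on Illumina, keeping genotypes with ≥10 input reads and ≥1 read per output. Fitness is log base 2 of genotype enrichment divided by wild-type enrichment, from inverse-variance-weighted replicate averages.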

Polymerase ribozyme fitness (log ratio), -3.3:
U4C C51U C96A A121C U134A

Polymerase ribozyme fitness (log ratio), ≤ -4.2:
U4A G62U A64C C75A G94A A97G A138G G141U
U4A G86A C87A
U4A U6A A17U A30U C105U U134G
U4A U6A A23U A49C G50A C85U
U4A U6C C10A A16C C27G G34U G65C G86C G112A G126U U135A
U4A U9A A12C A17C A30U G86A A89G
U4A U9A A20C C51U A52G U55C C93U A107G C125A G141U
U4A U9A U15G C36G U82A G94C
U4A U9G G48A U56A C72U C93U A115G
U4A U13A A30U C85U A106C A107G
U4A U15C A20C A40U A47C A64G G74A G92U C118U
U4A U31G C108U C114U C132U
U4C A16G A29U U56A A73G A91G U111G G133A
U4C A16U G83U U90C A113U U148C
U4C A17U G25U C57U A91C A97C C99U A122C C125U U139G U144G U148G
U4C A19U A40U A60U A97U G143U
U4C A19U G50C C76U U144G
U4C A20C G25U A47G U55A C79G C93U
U4C A20U A29U G46C C54U C85U C116U
U4C A20U A29U G70U C99G C108G
U4C A20U A40U A60G C85A C108G C116U
U4C A21U G84U A106U A137U G152U
U4C A22C G25C A28U G42C U44C C69A A98G U145G
U4C A23C A37G U53A
U4C A26G U61A A91G C99A G124C C125A
U4C A29C G71A C76A G83U U104A A137U
U4C A39C C75G U77A
U4C A40C U45G G46A G84U C96G C118U U144A
U4C A47C A64G A91U A119U
U4C A49C C85A A106G C108U G126U
U4C A49C C125A
U4C A49U C54A C85U C87A U104C
U4C A73G U78A G94U G126A C132G
U4C A73G U90G
U4C C5A A20G A22U A24U A60G C87G U139G
U4C C5G C36A G58C C85G G94C A97C G126U
U4C C8A U45A C72U C79U C93U
U4C C8A U56A C85G C93G G141A A147C U148C
U4C C8U C75U C93U G133C
U4C C10A A19G U55A G92A G143U
U4C C10A U15G G62C A64U G80A C93A C116A U127G C131U G141U U145A
U4C C10G C27G G58U C75U G80C G84A C125A
U4C C10U G11C A41U C85A A91G
U4C C14G A40C A60U A64G C93U A97U A147G
U4C C18A A24G C57G A60C C93U
U4C C18G A21U G50A A89C G141U
U4C C18U A28C C85U A120U G124C
U4C C27A U45G C51G G83A G88U U111G U135A
U4C C27G A28C C51U U53A A60G C63G G74A G81C C93A
U4C C32G C35A A47G
U4C C36A A47C C96G A107G C132U A150G G152A
U4C C38A G71U G100U
U4C C51U U56A G68A G94A C96A U101C
U4C C54G G58A C79U G86U C87U C93A U135A G136C
U4C C85U U101G C131G
U4C C87A A119U G141C
U4C G11C G42U G88C G92U G117U U135G
U4C G11U A22U G50A G81A U101A
U4C G25U A40C A41U G50C U55A U82C G141A
U4C G34C A60U C69A C99A G141C
U4C G42U G92A A107G C125U A142U
U4C G48A G84U G141U
U4C G48C C79A U82C C85G A122C U151G
U4C G50C C54U C69U A73U C76G A91C G92A A97U C125G U134A
U4C G68U C85U A121U
U4C G71A C103A A147C
U4C G83A C87G
U4C G92C U139A U148C A150U
U4C U6C G48A C87U U102G A113U
U4C U6G G74C G80C G92U C103G A106U
U4C U6G U33A C35G
U4C U7A A23C A49G C96G A107C U111G
U4C U7G U15G C18U A37C C95U U145C
U4C U9A A41C G48C C51A G68A G83C

Polymerase ribozyme fitness (log ratio), -3.75:
U4C C85A C95G A115G

Polymerase ribozyme fitness (log ratio), -1.94:
U4C A49U G94A A106G C123U

Polymerase ribozyme fitness (log ratio), -3.96:
U4A G92A G141A

Polymerase ribozyme fitness (log ratio), -2.83:
U4C A12U A21G G59A C85G G124U

Polymerase ribozyme fitness (log ratio), -2.27:
U4C G11U U53C

Polymerase ribozyme fitness (log ratio), -0.358:
U4A G92U

Polymerase ribozyme fitness (log ratio), -1.97:
U4C G58A G83A C85U

Polymerase ribozyme fitness (log ratio), -0.303:
U4C A52G G58U
